The list shows a part of the results.
system: T1, C. trachomatis L2/434/Bu expressing GFP (CTL2-GFP); set-up: species or system HeLa; C. trachomatis total inclusion area by high-content imaging, normalised to DMSO; settings: total inclusion area; 28.5 h, 10 µM; inhibitor
T1 construct: L2/434/Bu GFP intracellular growth in HeLa cells
Outline: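 Following bulk GFP and resorufin fluorescence reads, infected cells were fixed, Hoechst-stained and imaged on a high-content platform. Inclusion total area and number per well served as growth proxies; nuclei counts indicated host viability. MICs were derived as for the fluorescence assay.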

Structure (SMILES) | % of control remaining
Oc1ccc(/C=N/c2ccc(O)c(-c3nc4ccccc4s3)c2)cc1O [CBK262473] | 103.253
Cc1nc2ccc(C(=O)N3CCN(C4CCCCC4)C(=O)C3)cc2[nH]1 [CBK282131] | 94.3284
CC1Cc2ccccc2N1C(=O)C1C2C=CC(O2)C1C(=O)O (stereo not shown) [CBK286891] | 127.736
O=C(CCn1c(C(F)F)cc2cccnc21)N1CCCCCC1 [CBK284983] | 108.922
FC(F)(F)c1ccnc(OCCN2CCNCC2)n1 [CBK113297] | 121.581
CN(C)Cc1ccccc1-n1ncc(CN2CCS(=O)(=O)CC2)n1 [CBK112877] | 72.6478
Cc1nnnn1C(Cc1cccc(F)c1)C(=O)N1CC(C)CC(C)C1 (stereo not shown) [CBK298262] | 87.2736
COc1cc2nc(N3CCC4(CCN(C(=O)C(c5ccccc5)C(C)C)C4)C3)nc(N)c2cc1OC (stereo not shown) [CBK160790] | 31.1607
CCOc1ccc(-c2ccc(C#N)c(=S)[nH]2)cc1 [CBK288470] | 57.4475
Cc1ccc(C2c3c(O)n[nH]c3CC(C)(O)C2C(=O)OCc2ccccc2)cc1 (stereo not shown) [CBK269417] | 91.5713
CCOC(=O)NC(Nc1cccc(C)n1)(C(F)(F)F)C(F)(F)F [CBK261343] | 104.536
CN(CC1CCN(C(=O)OC(C)(C)C)CC1)c1ccnc(-c2ccncc2)n1 [CBK166064] | 95.4808
COc1cccc(/C=C2/SC(=S)N(C)C2=O)c1OCCCOc1ccc(C)cc1C [CBK264446] | 95.5458
N#Cc1cccnc1N1CCC(NC(=O)c2cccnc2)CC1 [CBK304283] | 98.7427
CC(C)NC(=O)N[C@H]1CCN2C(=O)c3cc(-c4ccccc4F)ccc3NC(=O)[C@H]12 [CBK289335] | 103.314
CN1CCc2nc(SCC(=O)NC(C)(C)C)c(C#N)cc2C1 [CBK267445] | 101.586
Cc1cccn2cc(C(=O)NC(C)CN3CCCC3)nc12 (stereo not shown) [CBK281714] | 94.9954
O=S(=O)(Nc1ccc2ncccc2c1)c1ccc(OC(F)(F)F)cc1 [CBK045339] | 99.5552
COc1cnc(-c2cnn(C)c2)c(NC(=O)c2cc(C)oc2C)n1 [CBK145218] | 102.294
Cc1nn(CCNC(=O)C2CC(=O)N(CC(C)C)C2)c(C)c1C (stereo not shown) [CBK281630] | 115.996

Structure (SMILES) | % of control remaining
Cc1[nH]c2ccccc2c1C(CC(=O)c1ccc(Br)cc1)C(=O)O (stereo not shown) [CBK269480] | 81.5274
Cc1[nH]c(=O)[nH]c(=O)c1Cc1ccccc1 [CBK113244] | 89.3792
COc1cc(C)nc(N2CCN(C(=O)CCc3ccsc3)CC2)n1 [CBK304572] | 36.0635
O=C(NC(=S)Nc1ccc(OCc2ccccc2)cc1)c1cccnc1 [CBK266224] | 125.005
COC(=O)c1sc2ncccc2c1NS(=O)(=O)c1cc(Br)c(Cl)s1 [CBK049973] | 98.1667
O=C(CN(c1cccc(Cl)c1)S(=O)(=O)c1ccccc1)NN=C1CCCCCC1 [CBK262519] | 77.4612
CC(=O)N1CCN(C(C(=O)O)c2c[nH]c3cc(NC(=O)c4ccccc4)ccc23)CC1 (stereo not shown) [CBK286680] | 71.9178
Cc1ccc(C(=O)N2C[C@H]3NC(=O)c4ccccc4C(=O)[C@@]3(C)C2)cc1 [CBK285315] | 90.8549
CCN(CC)C(=O)Cc1cc(C(=O)O)c2ccccc2n1 [CBK286942] | 77.5867
CC1(C)CC(N(Cc2ccc(F)cc2)Cc2c[nH]cn2)CC(C)(C)N1 [CBK282540] | 98.7369
Cc1nc(-c2ccc(N3CC(C(N)=O)CCC3C)nc2)[nH]c(=O)c1C (stereo not shown) [CBK306463] | 48.1915
O=C1CC(c2ccccc2)c2snc(C(=O)O)c2N1 (stereo not shown) [CBK287111] | 105.906
CC(=O)c1cccc(NS(=O)(=O)c2ccc(OC(F)(F)F)cc2)c1 [CBK043606] | 67.1853
COc1ccc2[nH]cc(CCNC(=O)N3CCN(CCN4CCOCC4)CC3)c2c1 [CBK155818] | 92.624
O=C(Nc1ccncc1)c1c(O)c2ccccc2[nH]c1=O [CBK288017] | 97.7585
O=C(O)c1cccc(NS(=O)(=O)c2ccc3c(c2)CN(C(=O)C(F)(F)F)CC3)c1 [CBK155709] | 94.9255
CC(CNC(=O)c1cncc(Br)c1)NC(=O)c1cncc(Br)c1 (stereo not shown) [CBK262040] | 77.7941
CC(=O)Nc1ccc(OCC(O)Cn2c(CO)nc3ccccc32)cc1 (stereo not shown) [CBK304549] | 34.3197
CC(C)c1ccc(-c2csc(Nc3cccc(C(=O)O)c3)n2)cc1 [CBK299880] | 90.822
Cc1cc(C)n(Cc2cccc(C(=O)NC(C)Cc3ccccn3)c2)n1 (stereo not shown) [CBK281449] | 86.2109
